# Measurements published in publication PMC3877284.
# By UniProt entry, the sequences of proteins in these tests, tags left out.
# UniProt P35222: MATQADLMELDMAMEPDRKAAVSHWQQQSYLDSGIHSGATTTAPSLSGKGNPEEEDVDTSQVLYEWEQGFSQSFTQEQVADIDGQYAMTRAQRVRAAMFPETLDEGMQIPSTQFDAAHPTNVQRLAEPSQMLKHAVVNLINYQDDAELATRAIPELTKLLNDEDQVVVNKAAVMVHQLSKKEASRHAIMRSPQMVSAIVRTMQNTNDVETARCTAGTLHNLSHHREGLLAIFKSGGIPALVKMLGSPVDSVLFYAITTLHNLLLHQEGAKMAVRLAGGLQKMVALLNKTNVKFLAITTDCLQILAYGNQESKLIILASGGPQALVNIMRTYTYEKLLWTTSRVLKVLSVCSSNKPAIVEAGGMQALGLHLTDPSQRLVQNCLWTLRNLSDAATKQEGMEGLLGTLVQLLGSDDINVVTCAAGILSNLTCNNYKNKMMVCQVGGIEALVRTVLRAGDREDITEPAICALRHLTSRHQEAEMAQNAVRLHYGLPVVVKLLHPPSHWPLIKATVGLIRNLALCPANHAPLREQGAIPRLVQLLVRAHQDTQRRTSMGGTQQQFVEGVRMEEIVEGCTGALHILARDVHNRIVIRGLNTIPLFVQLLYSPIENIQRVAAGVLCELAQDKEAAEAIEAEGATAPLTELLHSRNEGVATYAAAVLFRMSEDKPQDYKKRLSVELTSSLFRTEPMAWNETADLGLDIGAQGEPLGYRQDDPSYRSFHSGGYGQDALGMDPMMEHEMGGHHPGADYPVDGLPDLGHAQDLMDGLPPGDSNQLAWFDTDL
# Numbering of substitutions follows the chain as printed. No constants are given. Whether binding was seen depends on the method and setting. Binding seen in cells or lysates may run through a third protein. Some results given as binding are weak or reduced against the parent protein; the word gives no strength. For part of these data: Where a sequence is shown, tags or fusion partners need not be part of it.
# Columns and labels:
# [1] = molecular target: T1, flotillin-2 (human (endogenous in MCF10A, MCF7, HaCaT, Hep3B, HeLa)) (UniProt Q14254); assay: co-IP; IP with antibodies against flotillin-2 and flotillin-1 from MCF7 cells grown confluent for 5 days; 750 µg total protein
# T1 sequence: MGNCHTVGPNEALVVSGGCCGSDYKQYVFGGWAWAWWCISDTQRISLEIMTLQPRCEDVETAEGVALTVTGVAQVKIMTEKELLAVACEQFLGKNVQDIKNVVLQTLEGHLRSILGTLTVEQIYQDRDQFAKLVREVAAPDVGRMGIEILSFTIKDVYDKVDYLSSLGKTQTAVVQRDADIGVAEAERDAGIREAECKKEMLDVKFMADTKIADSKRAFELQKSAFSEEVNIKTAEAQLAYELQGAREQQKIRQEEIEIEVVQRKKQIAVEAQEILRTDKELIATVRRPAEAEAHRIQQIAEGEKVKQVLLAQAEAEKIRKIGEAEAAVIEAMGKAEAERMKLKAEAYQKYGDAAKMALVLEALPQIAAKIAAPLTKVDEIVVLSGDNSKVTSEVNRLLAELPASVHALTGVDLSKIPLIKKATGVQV
# flotillin-2-GST (rat) = molecular target: T2, flotillin-2-GST (rat) (UniProt Q9Z2S9); assay: pull-down; indirect GST pulldown: 5 µg GST-tagged protein on glutathione sepharose beads with MCF10A lysate (1.2-1.25 mg total protein; also lysates of flotillin-1 or flotillin-2 knockdown MCF10A cells), over night at 4°C; 10 mM Tris-HCl pH 8.0, 150 mM NaCl, 5 mM EDTA, 0.5% Triton X-100, 60 mM N-octylglucoside; only the target purified
# T2 sequence: T1 sequence with A372S, K422N, V426A
# flotillin-1-GST (rat) = molecular target: T3, flotillin-1-GST (rat) (UniProt Q9Z1E1); assay: as above
# T3 sequence: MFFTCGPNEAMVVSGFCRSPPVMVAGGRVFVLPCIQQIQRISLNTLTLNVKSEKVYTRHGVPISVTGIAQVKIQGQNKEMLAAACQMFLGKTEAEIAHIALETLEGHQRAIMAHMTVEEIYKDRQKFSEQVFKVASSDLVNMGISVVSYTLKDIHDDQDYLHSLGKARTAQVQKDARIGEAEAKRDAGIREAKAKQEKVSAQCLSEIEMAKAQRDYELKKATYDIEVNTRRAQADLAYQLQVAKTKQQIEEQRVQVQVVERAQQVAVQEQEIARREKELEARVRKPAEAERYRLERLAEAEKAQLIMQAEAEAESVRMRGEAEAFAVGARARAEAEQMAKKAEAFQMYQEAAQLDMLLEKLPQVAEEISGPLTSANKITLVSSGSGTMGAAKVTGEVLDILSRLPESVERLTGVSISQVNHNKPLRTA
substance,measurement,setting,value
β-catenin (from UniProt P35222 1-781),binding,[1],binds weakly
same,binding,flotillin-2-GST (rat),no binding
same,binding,flotillin-1-GST (rat),binds weakly
